Values marked as one replicate rest on one cluster of the flow cell; about a third of the high ones do not repeat.
The sequences below were run on ATP (assay: switch fluorescence ratio, 500 uM ATP over buffer (Cy3 cluster intensity, sum of 5 cycles each) (fold (ratio)); higher = stronger signal-on switching upon ATP binding; sequences stand for … in TCGTCGGCAGCGTCAGATGTGTATAAGAGACAGTTTTTTTTTTTTTTTTTTTTTTTTT…TC). Details: aptamer strand: ATP DNA aptamer (quencher-CACCTGGGGGAGTATTGCGGAGGAAGG + anchor), 100 nM annealed; ATP concentration: 500 uM; one replicate.
In short: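 Five buffer/ATP imaging cycles were run on Cy3-labelled switching-strand clusters on a modified Illumina MiSeq flow-cell, with NaOH stripping and re-annealing between cycles. In each cycle, clusters annealed to 100 nM quencher-labelled ATP aptamer were imaged in selection buffer, then after 15 min with 500 uM ATP at 22 °C. Per cluster, the fluorescence ratio is summed target-cycle over summed buffer-cycle Cy3 intensity, averaged per switch-domain sequence. Only clusters within 100-1000 RFU were kept.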
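Also: ATP exposure 15 min at 22 °C before imaging.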

Sequence | switch fluorescence ratio
ACGGGGCACT | 1.03
ACGGGTCGCG | 0.969
ACGGGTGGT | 1.02
ACGGGTTCAT | 1.06
ACGGGTTCGG | 1.02
ACGGTAACTT | 1.24
ACGGTACGTT | 1.05
ACGGTAGGAG | 0.975
ACGGTAGTTT | 0.981
ACGGTATGTT | 1.11
ACGGTCAATG | 1.04
ACGGTCTCCG | 0.978
ACGGTGAATA | 1.05
ACGGTGAGG | 0.989
ACGGTGAGGA | 1.01
ACGGTGCACC | 1.03
ACGGTGGGAT | 0.989
ACGGTGTCGT | 1.04
ACGTAAAGAG | 0.973
ACGTAAGACT | 1.72
ACGTACAGTC | 1.52
ACGTACCAAG | 1.39
ACGTAGACTT | 1.29
ACGTAGCCCG | 1.06
ACGTAGTGGG | 1.08

Sequence | switch fluorescence ratio
ACGTATACAC | 1.47
ACGTATGAGC | 1.08
ACGTCGCAA | 1.79
ACGTCGTGGC | 1.04
ACGTCGTTGG | 1.02
ACGTCTCTCT | 1
ACGTCTGTCC | 1
ACGTGAAAAC | 1.88
ACGTGACAGC | 1.2
ACGTGCCTT | 0.998
ACGTGCTGTC | 0.977
ACGTGGAATT | 0.982
ACGTGGAGGG | 1.01
ACGTGGCAGC | 1.04
ACGTGGTATT | 1.01
ACGTGTACGT | 1.02
ACGTGTAGCT | 1.04
ACGTGTTCGC | 0.984
ACGTTAGTAA | 1.01
ACGTTATCGC | 1.14
ACGTTCTAAC | 1.06
ACGTTGCTAG | 0.988
ACGTTGGCTA | 2.02
ACGTTTCTGT | 0.987
ACTAACAGT | 1.04

Sequence | switch fluorescence ratio
ACTAACTGGA | 1.11
ACTAAGTAAT | 1.02
ACTAATGGCG | 1.07
ACTACCAGAA | 1.08
ACTACTACCT | 1.31
ACTACTCCCG | 1.4
ACTAGAAGCT | 0.999
ACTAGAAGTG | 1.01
ACTAGACCGT | 1.06
ACTAGCACTG | 1.08
ACTAGCCTTG | 0.983
ACTAGCGGGG | 0.957
ACTAGGACGG | 1.02
ACTAGGTAGT | 1.04
ACTAGGTTCT | 1.03
ACTAGTGTTC | 1.02
ACTAGTTGGA | 1.01
ACTATAGGGT | 1.04
ACTATATAGA | 1.01
ACTATCCACC | 1.12
ACTATCCTTC | 1.11
ACTATGATTC | 1.06
ACTATGTACA | 1.05
ACTATGTAGC | 1.06
ACTATTAGGT | 1.03

Sequence | switch fluorescence ratio
ACTATTATAA | 1.03
ACTATTCTGG | 0.963
ACTATTTGGC | 0.958
ACTATTTTCA | 1.04
ACTCAAGAAG | 1.13
ACTCAAGGAC | 1.28
ACTCACGCTA | 1.92
ACTCAGGTC | 1.06
ACTCAGTTTG | 1.01
ACTCATGTCG | 1
ACTCCCAGTC | 3.69
ACTCCCCTCG | 3.86
ACTCGATGT | 1.01
ACTCGGTATG | 1.01
ACTCGTTTAC | 1.44
ACTCTACCAA | 1.33
ACTCTGGACC | 1.12
ACTCTGTACG | 1.04
ACTCTTGGAG | 1
ACTCTTGGTG | 1.12
ACTCTTTTT | 1.01
ACTGACTATT | 1.12
ACTGACTCGT | 1.13
ACTGAGATTC | 1.09
ACTGAGCATT | 1.18

— the supplement of paper PMC10126150
